The source of these data is the BET-seq Pho4 binding data (Le et al. 2018).

Some of the results follow. Values were computed here from the reads of four pooled replicates and scatter widely.

The target in this experiment is T1, Pho4 (S. cerevisiae) (UniProt P07270).
T1 sequence: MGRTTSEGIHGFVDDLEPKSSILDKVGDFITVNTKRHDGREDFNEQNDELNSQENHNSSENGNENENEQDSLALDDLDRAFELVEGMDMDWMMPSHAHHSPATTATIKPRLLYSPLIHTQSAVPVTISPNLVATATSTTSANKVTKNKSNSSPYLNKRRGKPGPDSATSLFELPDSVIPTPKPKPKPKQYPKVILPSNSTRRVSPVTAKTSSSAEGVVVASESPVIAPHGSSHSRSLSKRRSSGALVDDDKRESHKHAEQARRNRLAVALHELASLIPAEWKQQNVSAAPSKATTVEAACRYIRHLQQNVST
Nature of the experiment: relative binding free energy (BET-seq); higher = weaker binding. Conditions: reference: library average.
Regarding TGGAGCACGTGTGTCA, the “relative binding free energy” value was -0.13 kcal/mol.
On to GGTTGCACGTGTAATT, for which the “relative binding free energy” value was 0.14 kcal/mol.
For TGCTGCACGTGTGATT the value was 0 kcal/mol.
For TATGGCACGTGCAGGT the value was -0.03 kcal/mol; for TAGGGCACGTGGCCGG, -0.24 kcal/mol; for TGGGTCACGTGGAACA, 0.16 kcal/mol.
In the case of TTGCTCACGTGGGAGA it was 0.21 kcal/mol; in that of TAGGACACGTGTGGGA, 0.05 kcal/mol; in that of GGTAGCACGTGTACAG, -0.05 kcal/mol.
For ATGCACACGTGTAGTG, the “relative binding free energy” value turned out to be 0.01 kcal/mol.
Take TTAGTCACGTGCAGGT: the “relative binding free energy” value was -0.01 kcal/mol.
In the case of GTTACCACGTGATGGT it was 0.11 kcal/mol.
For CTCAGCACGTGTGGTG the value was -0.07 kcal/mol; for AGGTCCACGTGGTCGG, -0.15 kcal/mol.
Consider TAGAGCACGTGTCTTT, for which the “relative binding free energy” value is -0.03 kcal/mol.
In the case of TTGCGCACGTGGGTCG, the “relative binding free energy” value was -0.36 kcal/mol.
In the case of AGTTTCACGTGAACTG it was 0.33 kcal/mol; in that of GGGGTCACGTGCCGGG, 0.12 kcal/mol.
On to ATGTTCACGTGCTGTT, for which the “relative binding free energy” value is 0.18 kcal/mol.
In the case of TTTGACACGTGGTGTC it was 0.02 kcal/mol; in that of GGGCTCACGTGATAAT, 0.5 kcal/mol; in that of GGTTACACGTGGAGTT, 0.27 kcal/mol.
Consider TTAGACACGTGATGGT, for which the “relative binding free energy” value worked out at 0.1 kcal/mol.
For GTTTTCACGTGCTTGT the value was 0.25 kcal/mol.
For TTTTCCACGTGGGCTT, the “relative binding free energy” value is 0 kcal/mol.
For GTTGACACGTGGTGTT the value was 0 kcal/mol; for ACTTACACGTGTTTTG, 0.19 kcal/mol.
With TCAGGCACGTGGGCGA, the “relative binding free energy” value was -0.11 kcal/mol.
Turning to GGTGGCACGTGTTGTT, the “relative binding free energy” value was 0.04 kcal/mol.
For CTGTGCACGTGCTAGG the value was -0.06 kcal/mol.
Consider AATAGCACGTGGGGCA, for which the “relative binding free energy” value is -0.29 kcal/mol.
For TAATTCACGTGGTTTT the value was 0.22 kcal/mol.
Regarding AGGCGCACGTGAGTTG, the “relative binding free energy” value stood at 0.11 kcal/mol.
In the case of GTTATCACGTGATAGC it was 0.35 kcal/mol; in that of GGTGACACGTGATTAG, 0.07 kcal/mol; in that of TGGATCACGTGTACGG, 0.27 kcal/mol.
For CAGGTCACGTGTGTTG the value was 0.14 kcal/mol; for CTGGACACGTGGGGGC, -0.05 kcal/mol; for TTTTTCACGTGACCTG, 0.37 kcal/mol.
As to AATGGCACGTGTTCTT, the “relative binding free energy” value is -0.15 kcal/mol.
In the case of GGTGTCACGTGTACTT it was 0.24 kcal/mol; in that of TTTTTCACGTGAGGCG, 0.43 kcal/mol; in that of GGAGGCACGTGTGCAT, 0.01 kcal/mol.
For GCGTTCACGTGTTTAT the value was 0.39 kcal/mol.
In the case of GGACTCACGTGTGTAG it was 0.29 kcal/mol.
As for GAGGTCACGTGTATAT, the “relative binding free energy” value amounted to 0.25 kcal/mol.
Turning to GGGTTCACGTGAGTCT, the “relative binding free energy” value worked out at 0.33 kcal/mol.
GTTTGCACGTGAGCGG: the “relative binding free energy” value amounted to 0.19 kcal/mol.
In the case of ATTAGCACGTGAGTAT it was 0.1 kcal/mol; in that of TTGAGCACGTGATGGA, 0.02 kcal/mol; in that of ATGTGCACGTGGCGAT, -0.07 kcal/mol.
For TAATTCACGTGGCTTG the value was 0.21 kcal/mol; for GTAATCACGTGATGGG, 0.32 kcal/mol; for GGTAACACGTGTGGTC, 0.16 kcal/mol.
Regarding AGTCTCACGTGTGGGA, the “relative binding free energy” value stood at 0.19 kcal/mol.
With GGTGCCACGTGTAGCG, the “relative binding free energy” value was 0.04 kcal/mol.
For CATTTCACGTGGAAGG, the “relative binding free energy” value came out at 0.26 kcal/mol.
In the case of CCTTTCACGTGTTGTT it was 0.3 kcal/mol.
For the sequence GGCATCACGTGTGGTT, the “relative binding free energy” value came out at 0.3 kcal/mol.
For GTGGACACGTGGGCGG the value was -0.17 kcal/mol.
In the case of TGTTTCACGTGTTGCG it was 0.21 kcal/mol; in that of GTATACACGTGGGTGG, 0.02 kcal/mol; in that of GAGGTCACGTGGTAAT, 0.09 kcal/mol.
In the case of GTTGGCACGTGTGGCA it was 0.08 kcal/mol; in that of CTAGTCACGTGGTGCG, -0.02 kcal/mol.
On to TGAGGCACGTGGTGAA, for which the “relative binding free energy” value was -0.24 kcal/mol.
For TAGAACACGTGGGAGG the value was -0.06 kcal/mol; for AGTTTCACGTGTCTCG, 0.3 kcal/mol; for TCTTTCACGTGCGTTG, 0.16 kcal/mol.
For GCTGGCACGTGGGAGC the value was -0.14 kcal/mol.
In the case of GGCCGCACGTGTGTTA it was 0.06 kcal/mol; in that of TGGATCACGTGTTGTC, 0.14 kcal/mol; in that of TCGTTCACGTGTTAGG, 0.35 kcal/mol.
As for TTTAGCACGTGGTAAG, the “relative binding free energy” value was -0.05 kcal/mol.
For the sequence TGCATCACGTGTATGT, the “relative binding free energy” value was -0.06 kcal/mol.
In the case of TATAGCACGTGGTAGA it was -0.22 kcal/mol; in that of TGACTCACGTGTTAGT, 0.24 kcal/mol.
On to CGTTTCACGTGGGAAG, for which the “relative binding free energy” value worked out at 0.24 kcal/mol.
In the case of AGTGTCACGTGAAAGG, the “relative binding free energy” value is 0.29 kcal/mol.
As for GGTAGCACGTGATGTA, the “relative binding free energy” value was found to be 0.06 kcal/mol.
In the case of AGTACCACGTGGTTGA it was -0.08 kcal/mol; in that of TCTTTCACGTGTCATG, 0.23 kcal/mol; in that of AGGGTCACGTGGGAGG, 0.03 kcal/mol.
For GGTAGCACGTGGGTGC the value was -0.2 kcal/mol; for TCGGTCACGTGCGAGG, 0.17 kcal/mol.
For TGTGTCACGTGGCTAG the value was -0.01 kcal/mol; for TTGTGCACGTGGGGCA, -0.09 kcal/mol.
On to TGTGCCACGTGGGGGG, for which the “relative binding free energy” value was -0.22 kcal/mol.
In the case of GGTTGCACGTGAGTAG it was 0.34 kcal/mol; in that of AGCGGCACGTGTGACG, 0.07 kcal/mol; in that of ATTAGCACGTGCGAGT, -0.07 kcal/mol.
In the case of CGTGACACGTGATAAG, the “relative binding free energy” value was 0.26 kcal/mol.
For TGGAACACGTGGGGAG the value was -0.1 kcal/mol; for TTTTTCACGTGGTATA, 0.19 kcal/mol; for GGAATCACGTGAGGAT, 0.44 kcal/mol.
In the case of GATGTCACGTGGTTCG it was 0.14 kcal/mol; in that of TGCCGCACGTGTTGGG, -0.08 kcal/mol; in that of ACCGGCACGTGGAGGG, -0.13 kcal/mol.
On to CGGATCACGTGTGTCG, for which the “relative binding free energy” value is 0.15 kcal/mol.
In the case of CTTTGCACGTGTTTCT it was 0 kcal/mol.
For ATACACACGTGGTGGT the value was -0.13 kcal/mol.
For AATATCACGTGGGTGT the value was 0.07 kcal/mol; for CGTTTCACGTGTTCGT, 0.24 kcal/mol; for AGAGACACGTGTGTAG, 0.13 kcal/mol.
For TTATCCACGTGATGTG, the “relative binding free energy” value worked out at 0.09 kcal/mol.
ATGAACACGTGTATTT: the “relative binding free energy” value turned out to be 0.07 kcal/mol.
For GTGTGCACGTGGTCAG the value was -0.12 kcal/mol; for TTATTCACGTGGTTGA, 0.16 kcal/mol; for TGCCTCACGTGAGAGG, 0.43 kcal/mol.
In the case of ATGTTCACGTGGGGTG it was 0.12 kcal/mol; in that of AGGCGCACGTGATTTT, 0.1 kcal/mol.
In the case of TTTGCCACGTGGTCAG it was -0.1 kcal/mol; in that of GTTACCACGTGGGAGT, -0.06 kcal/mol.
For TCACTCACGTGAGGGG, the “relative binding free energy” value was found to be 0.29 kcal/mol.
Regarding ATAGTCACGTGTGCTT, the “relative binding free energy” value was 0.08 kcal/mol.
